Results published in PubChem BioAssay AID624417 (National Center for Advancing Translational Sciences (NCATS), 2012).
Values joined by “and” are separate entries in the source; they are usually repeats but may differ in a detail not shown here. Equal values may be shown once. The whole screen tested about 410,000 compounds, of which about 6,400 (1.6%) were called active. The inconclusive results got no clear call from the source; some entries with a clear call stand among them for comparison. The call rests on the fitted dose curve; in most records, active means well fitted inhibition curve with a large enough effect; inconclusive means small, poorly fitted or top-dose-only effect; inactive means no such curve, though single readings can be large or run the other way. A potency beside an inconclusive call is a rough fit, not a confirmed value.

Biological target: Glucagon-like peptide 1 receptor (Homo sapiens) (UniProt P43220)
Assay: qHTS of GLP-1 Receptor Inverse Agonists (Inhibition Mode); further: nearly all actives have a fitted effect of over 55% in size
Details: HEK293 GLP-1R CRE-luciferase, luminescence, 24 h; Potency: GLP-1R form is constitutively active unless noted; activity change, negative = inhibition: at 38.3 µM (top of the series) unless noted
Method in brief: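 Stable HEK293 clone (constitutively active GLP-1R + cAMP-response luciferase); 200 cells/uL plated, 12 h pre-culture, compound 24 hr, 37 deg C/5% CO2; detection reagent 12 min RT; luminescence.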
On the % scale 0 is the no-effect control and ±100 the full control effect; potency means the concentration at half of the fitted maximal effect; tags describe the fitted curve by direction and shape.

Chain of UniProt P43220 (P43220 whole entry, looked up): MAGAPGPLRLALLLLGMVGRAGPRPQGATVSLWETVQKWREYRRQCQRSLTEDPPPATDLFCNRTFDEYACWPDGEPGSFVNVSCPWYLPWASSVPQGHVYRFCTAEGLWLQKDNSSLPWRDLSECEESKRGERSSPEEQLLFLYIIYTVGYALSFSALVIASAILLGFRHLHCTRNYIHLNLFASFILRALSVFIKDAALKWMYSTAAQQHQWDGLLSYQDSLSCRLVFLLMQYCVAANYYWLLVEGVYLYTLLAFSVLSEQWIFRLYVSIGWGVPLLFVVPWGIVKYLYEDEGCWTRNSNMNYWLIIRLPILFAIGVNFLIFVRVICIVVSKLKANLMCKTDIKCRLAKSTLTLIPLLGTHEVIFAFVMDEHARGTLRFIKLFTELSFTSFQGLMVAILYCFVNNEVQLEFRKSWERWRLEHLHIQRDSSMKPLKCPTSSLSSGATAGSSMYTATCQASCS

Compound	Potency	activity change, negative = inhibition
CCOC(=O)C1=C(N)OC2=C(C(=O)CCC2)C12C(=O)N1c3c(ccc(C)c32)C(C)=CC1(C)C (stereo not drawn)	inconclusive: 15.8 µM [inhibitor, partial curve, poor fit]	–
CN(C)C(=O)C(CCN1CCC(O)(c2ccc(Cl)cc2)CC1)(c1ccccc1)c1ccccc1	inconclusive: 4.47 µM [inhibitor, full curve, poor fit]	–
O=c1c2ccccc2nc(-c2ccoc2)n1-c1ccccc1	inconclusive: 10 µM [inhibitor, partial curve, poor fit]	–
CSc1ncc(/C=C2/C(=O)NC(=O)N(C3CCCCC3)C2=O)cn1	–	inactive: -23.6%
OC(CC#CCN1CCCCCC1)(c1ccccc1)C1CCCC1 (stereo not drawn)	inconclusive: 31.6 µM [inhibitor, partial curve, poor fit]	–
COC(=O)C(O)(c1ccc(NC(=O)Oc2ccccc2)cc1)C(F)(F)F (stereo not drawn)	–	inactive: -1.75%
C[C@]12C=CC(=O)C=C1C=C[C@@H]1C2CC[C@]2(C)C(=O)CCC12 (stereo partly drawn)	–	inactive: 53.2%
C[C@]12CCC(=O)C=C1CC[C@@H]1[C@@H]2C(=O)C[C@]2(C)C(=O)CC[C@@H]12	inconclusive: 12.6 µM [inhibitor, single point]	–
C#C[C@]1(O)CCC2C3CC=C4C[C@H](O)CC[C@]4(C)C3CC[C@@]21C (stereo partly drawn)	–	inactive: 15.2%
COP(=O)(OC)C1(Nc2ccc(C)cc2)CCCCC1	inconclusive: 12.6 µM [inhibitor, partial curve, poor fit]	–
NS(=O)(=O)c1ccc(N=Cc2c(O)n(C3CCCCC3)c(=O)n(C3CCCCC3)c2=O)cc1	inconclusive: 25.1 µM [inhibitor, single point]	–
COc1ccc2cc1Oc1ccc(cc1)C[C@H]1c3cc(c(OC)cc3CCN1C)Oc1c(OC)c(OC)cc3c1[C@@H](C2)N(C)CC3	inconclusive: 10 µM [inhibitor, partial curve, poor fit]	–
CCCc1c(C)nc(SCC(=O)C(C)(C)C)nc1OC(=O)N(C)C	inconclusive: 10 µM [inhibitor, single point]	–
O=c1c2cc(Cl)cc(Cl)c2nc(CN2CCOCC2)n1-c1ccccc1F	inconclusive: 5.62 µM [inhibitor, partial curve, poor fit]	–
O=Cc1cn(CCCOc2ccccc2)c2ccccc12	inconclusive: 8.91 µM [inhibitor, partial curve, poor fit]	–
CCCCN1CCS(=O)(=O)N(Cc2ccccc2Br)CC(C(=O)OC)C1 (stereo not drawn)	inconclusive: 28.2 µM [inhibitor, single point]	–
CSc1ccc(CN2CCN(C(=O)COc3cccc(C)c3)CC2)cc1	inconclusive: 20 µM [inhibitor, partial curve, poor fit] and inconclusive: 7.08 µM [inhibitor, partial curve, poor fit]	–
COc1cccc(C(c2nnnn2-c2ccc3c(c2)OCCO3)N2CCC(n3c(=O)[nH]c4ccccc43)CC2)c1OC (stereo not drawn)	–	inactive: -63.4%
CCOC(=O)[C@]12Cc3c(cc(OC)c(OC)c3OC)[C@H]1N(CCC(=O)OC)C(=O)c1ccccc12	inconclusive: 28.2 µM [inhibitor, single point]	–

Compound	Potency	activity change, negative = inhibition
Cc1cccc(N2C(=O)NC(=O)/C(=C/c3ccc([N+](=O)[O-])o3)C2=O)c1	–	inactive: 23.9%
Cc1ccc(C2CN(C)CC2C(=O)c2ccc(F)cc2)cc1 (stereo not drawn)	inconclusive: 8.91 µM [inhibitor, partial curve, poor fit]	–
OC1/C(=C/c2ccc(Cl)cc2Cl)N2CCC1CC2 (stereo not drawn)	inconclusive: 7.94 µM [inhibitor, partial curve, poor fit]	–
Cc1cc(C)cc(N2C(=O)NC(=O)/C(=C\c3cccn3-c3ccccc3)C2=O)c1	inconclusive: 28.2 µM [inhibitor, single point]	–
COc1ccc(NC(=O)CN(C)C(=O)CSC(c2ccccc2)c2ccccc2)cc1	inconclusive: 7.94 µM [inhibitor, partial curve, poor fit]	–
CCOc1ccc(CCNC(=O)c2cc3c(-c4ccc(OC)c(OC)c4)nn(C)c3s2)cc1OCC	inconclusive: 28.2 µM [inhibitor, single point]	–
COc1cc(OC)c(/C=C2\C(=O)Nc3ccccc32)c(OC)c1	inconclusive: 2 µM [inhibitor, partial curve, poor fit]	–
COc1ccc(S(=O)(=O)N2CCN(C(=O)c3ccc(COc4ccccc4)o3)CC2)cc1	inconclusive: 22.4 µM [inhibitor, single point]	–
CC1Cc2ccccc2N1Cc1cccc(S(=O)(=O)N(C)C)c1 (stereo not drawn)	inconclusive: 5.01 µM [inhibitor, partial curve, poor fit]	–
CCOP(=O)(OCC)C(NC(=O)c1cccc([N+](=O)[O-])c1)C(Cl)(Cl)Cl (stereo not drawn)	–	inactive: 8.44%
CCN(CC)P(=O)(/C=C(\Cl)c1ccccc1)/C=C(\Cl)c1ccccc1	–	inactive: 0.161%
Cc1ccc(CN2C(=O)NC(=O)C3(Cc4c(nc5ccccn5c4=O)N4CCCCCC43)C2=O)cc1 (stereo not drawn)	–	inactive: -8.84%
COc1ccc(-c2nc(CN3C(=O)CN=C(c4ccccc4)c4ccccc43)c(C)o2)cc1	inconclusive: 10 µM [inhibitor, single point]	–
O=Cc1cn(Cc2ccc(F)cc2Cl)c2ccccc12	active: 10 µM [setting not given]	–
Cc1ccc(S(=O)(=O)c2nc(-c3ccccc3Cl)oc2N(C)C2CCN(C)CC2)cc1	inconclusive: 6.31 µM [inhibitor, partial curve]	–
COC(=O)N(c1ccccc1)P(=O)(Oc1ccccc1)Oc1ccccc1	inconclusive: 11.2 µM [inhibitor, single point]	–
CC/C(=N\Nc1ccccc1)c1c(O)n(C)c(=O)n(C)c1=O	inconclusive: 1 µM [inhibitor, full curve, poor fit]	–
COC(=O)C1=C(c2cccc(OCc3ccccc3)c2)C[C@@H]2CC[C@H]1N2C(=O)NCc1cccc(OC)c1	inconclusive: 20 µM [inhibitor, single point]	–
O=C(CSc1ncnc2c1nnn2-c1ccc(F)cc1)NCC1CCCO1 (stereo not drawn)	inconclusive: 3.55 µM [inhibitor, partial curve, poor fit]	–
